Laboratory results as given in the supplement of paper PMC10369915.
The other results are listed elsewhere or left out. No stated cut-off is given here; in the data, active = 3.2 or more and inactive = the rest. Most of these values are background signal.

Assays:
Assay in all cases: enrichment score (SH2-bound / input frequency) (ratio); bacterial display of known human phosphotyrosine sites (pTyr-Var adds point mutants) read by sequencing; higher = stronger binding; tyrosines were phosphorylated by kinases first
Conditions in all cases: peptide library: pTyr-Var
SHP2 C-SH2 domain E139D = biological target: SHP2 C-SH2 domain E139D
[1] = biological target: SHP2 C-SH2 domain wild-type
SHP2 N-SH2 domain L43F = biological target: SHP2 N-SH2 domain L43F
SHP2 N-SH2 domain T42A = biological target: SHP2 N-SH2 domain T42A
SHP2 N-SH2 domain T52S = biological target: SHP2 N-SH2 domain T52S
[2] = biological target: SHP2 N-SH2 domain wild-type
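Further: displayed peptides selected on beads carrying the immobilized SH2 domain, with library peptides lacking any tyrosine serving as negative controls.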

Binder | enrichment score (SHP2 C-SH2 domain E139D) | enrichment score [1] | enrichment score (SHP2 N-SH2 domain L43F) | enrichment score (SHP2 N-SH2 domain T42A) | enrichment score (SHP2 N-SH2 domain T52S) | enrichment score [2]
LRLSSYSTTIR [CYP7B1_Y365] | inactive: 1.22 | inactive: 1.06 | inactive: 0.981 | inactive: 1.03 | inactive: 0.83 | inactive: 0.926
IDPYTYTPFGS [CYP3A4_Y432_I431T] | inactive: 0.763 | inactive: 0.813 | inactive: 0.734 | inactive: 1.79 | inactive: 0.724 | inactive: 0.801
SSSAIYDNPDL [DCP1B_Y191_N195D] | inactive: 0.686 | inactive: 0.528 | inactive: 0.684 | inactive: 0.687 | inactive: 0.756 | inactive: 0.751
LRLFSYSTTIR [CYP7B1_Y365_S363F] | inactive: 0.62 | inactive: 0.587 | inactive: 0.584 | inactive: 0.476 | inactive: 0.554 | inactive: 0.69
MSRNLYSGDCY [DDR2_Y736_Y740C] | inactive: 0.835 | inactive: 0.889 | inactive: 0.756 | inactive: 0.534 | inactive: 0.6 | inactive: 1.08
QSPQLYKQLCI [DARS1_Y253_M256L] | inactive: 0.586 | inactive: 0.857 | inactive: 0.953 | inactive: 0.41 | inactive: 0.487 | inactive: 0.932
ALTRSYIREKV [CYP2C8_Y243] | inactive: 0.404 | inactive: 0.345 | inactive: 0.328 | inactive: 0.34 | inactive: 0.291 | inactive: 0.341
KAWGIYDCQQP [CYP3A7_Y75_V71A] | inactive: 1.06 | inactive: 1.04 | inactive: 1.02 | inactive: 0.935 | inactive: 0.836 | inactive: 1.13
VRVQLYDPDYM [CYP4A22_Y100] | inactive: 1.23 | inactive: 1.15 | inactive: 1.33 | inactive: 1.26 | inactive: 1.48 | inactive: 1.35
PLCPDYQEPSR [DDR2_Y481_R478C] | inactive: 0.944 | inactive: 0.715 | inactive: 0.853 | inactive: 0.924 | inactive: 0.708 | inactive: 1.28
LYDPDFMKVIL [CYP4A22_Y104_Y104F] | inactive: 1.22 | inactive: 1.13 | inactive: 1.46 | inactive: 1.1 | inactive: 1.42 | inactive: 1.28
LYSGDCYRIQG [DDR2_Y740_Y740C] | inactive: 0.889 | inactive: 1.02 | inactive: 0.837 | inactive: 0.68 | inactive: 0.647 | inactive: 1.01
EEGESHVCSSD [DCX_Y125_Y125H] | inactive: 0.577 | inactive: 0.445 | inactive: 0.503 | inactive: 0.569 | inactive: 0.513 | inactive: 0.582
KSVLVYRNGDP [DCDC2_Y22] | inactive: 1.06 | inactive: 0.926 | inactive: 1.16 | inactive: 1.02 | inactive: 0.866 | inactive: 1.06
GVRYIYTIDGS [DCX_Y105] | inactive: 2.31 | active: 4.5 | inactive: 1.18 | active: 3.25 | inactive: 1.19 | inactive: 1.08
FKGIVYSVSSD [DCX_Y70_A71S] | inactive: 0.672 | inactive: 0.873 | inactive: 0.922 | inactive: 0.752 | inactive: 0.789 | inactive: 0.908
AVRYIYTIDGS [DCX_Y105_G100A] | inactive: 2.18 | active: 4.4 | inactive: 1.22 | inactive: 2.94 | inactive: 1.28 | inactive: 1.01
LYDPDYMKVIL [CYP4A22_Y104] | inactive: 0.735 | inactive: 0.754 | inactive: 0.49 | inactive: 0.533 | inactive: 0.497 | inactive: 0.749
ESFCLYPPVPQ [CYP4B1_Y377_R375C] | inactive: 0.896 | inactive: 0.797 | inactive: 0.649 | inactive: 0.709 | inactive: 0.955 | inactive: 0.923

Binder | enrichment score (SHP2 C-SH2 domain E139D) | enrichment score [1] | enrichment score (SHP2 N-SH2 domain L43F) | enrichment score (SHP2 N-SH2 domain T42A) | enrichment score (SHP2 N-SH2 domain T52S) | enrichment score [2]
VILARYGPAWR [CYP2D6_Y124_F120I] | inactive: 0.366 | inactive: 0.339 | inactive: 0.264 | inactive: 0.316 | inactive: 0.363 | inactive: 0.363
LFDPDYMKVIL [CYP4A22_Y104_YF] | inactive: 1.25 | inactive: 1.42 | inactive: 1.09 | inactive: 1.2 | inactive: 1.24 | inactive: 1.28
RNGNRYFKGIV [DCX_Y64_D62N] | inactive: 0.432 | inactive: 0.399 | inactive: 0.431 | inactive: 0.329 | inactive: 0.333 | inactive: 0.315
KAPPTYDTVLQ [CYP3A4_Y347] | inactive: 0.608 | inactive: 0.683 | inactive: 0.731 | inactive: 0.574 | inactive: 0.702 | inactive: 0.837
VRVQLYDPDFM [CYP4A22_Y100_Y104F] | inactive: 1.28 | inactive: 1.01 | inactive: 1.3 | inactive: 1.06 | inactive: 1.14 | inactive: 1.29
YSGDCYRIQGR [DDR2_Y741_Y740C] | inactive: 0.56 | inactive: 0.691 | inactive: 0.643 | inactive: 0.697 | inactive: 0.75 | inactive: 0.651
GVSFIYTIDGS [DCX_Y105_R102S_YF] | inactive: 0.864 | inactive: 0.805 | inactive: 1.16 | inactive: 0.819 | inactive: 0.919 | inactive: 1.16
IDPFIYTPFGS [CYP3A4_Y432_YF] | inactive: 1.62 | inactive: 1.18 | inactive: 1.09 | inactive: 2.26 | inactive: 1.38 | inactive: 1.03
SSSAIYDNPNL [DCP1B_Y191] | inactive: 0.485 | inactive: 0.581 | inactive: 0.458 | inactive: 0.474 | inactive: 0.591 | inactive: 0.631
IDPYIYTPFGS [CYP3A4_Y432] | inactive: 0.976 | inactive: 0.788 | inactive: 0.893 | inactive: 1.02 | inactive: 0.721 | inactive: 0.77
MSRNLYSGDYY [DDR2_Y736] | inactive: 0.72 | inactive: 0.624 | inactive: 0.68 | inactive: 0.553 | inactive: 0.64 | inactive: 0.708
QDDTVYMGKVT [DCTN1_Y1244] | inactive: 0.594 | inactive: 1.08 | inactive: 0.876 | inactive: 0.65 | inactive: 0.794 | inactive: 0.873
PQAVRYIYTID [DCX_Y103_G100A] | inactive: 1.9 | active: 4.71 | inactive: 1.48 | inactive: 2.77 | inactive: 1.38 | inactive: 1.2
LFDPDFMKVIL [CYP4A22_Y104_Y104F_YF] | inactive: 1.62 | inactive: 1.66 | inactive: 1.61 | inactive: 1.68 | inactive: 1.72 | inactive: 1.45
SFHSSYSEIKD [DCLRE1C_Y322] | inactive: 0.931 | inactive: 1.59 | inactive: 0.872 | inactive: 0.805 | inactive: 0.753 | inactive: 0.635
VQNIVYHTASI [CYP39A1_Y102_R103H] | inactive: 1.12 | inactive: 1.61 | inactive: 1.38 | inactive: 2.03 | inactive: 1.12 | inactive: 0.847
NSVLVYRNGDP [DCDC2_Y22_K17N] | inactive: 0.736 | inactive: 0.72 | inactive: 0.625 | inactive: 0.782 | inactive: 0.846 | inactive: 0.624
GVSYIYTIDGS [DCX_Y105_R102S] | inactive: 1.92 | active: 4.1 | inactive: 1.07 | active: 3.36 | inactive: 1.2 | inactive: 0.941
